Laboratory results taken from PubChem BioAssay AID624417 (National Center for Advancing Translational Sciences (NCATS), 2012).
In all, about 410,000 compounds went through this assay and about 6,400 (1.6%) were called active. Inconclusive results, whose numbers are uncertain, are shown with a selection of clear calls. Calls come from the whole dose curve; as a rule, active = well fitted inhibition curve with a large enough effect; inconclusive = small, poorly fitted or top-dose-only effect; inactive = no such curve, though single readings can be large or run the other way. Potencies of inconclusive entries are left out as doubtful fits.

Target: Glucagon-like peptide 1 receptor (Homo sapiens) (UniProt P43220)
Assay: qHTS of GLP-1 Receptor Inverse Agonists (Inhibition Mode); note: nearly all actives have a fitted effect of over 55% in size
Details: HEK293 GLP-1R CRE-luciferase, luminescence, 24 h; Potency: GLP-1R form is constitutively active unless noted; activity change, negative = inhibition: at 38.3 µM (top of the series) unless noted
Method in brief: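 Inverse agonists were sought by their lowering of basal cAMP reporter luciferase output in HEK293 cells stably carrying constitutively active human GLP-1R, after 24 h compound treatment.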
% is set by controls: 0 for no effect and ±100 for the full control effect; potency is the fitted concentration of half-maximal effect; tags give direction and shape of the fitted curve.

Chain of UniProt P43220 (P43220 whole entry, looked up): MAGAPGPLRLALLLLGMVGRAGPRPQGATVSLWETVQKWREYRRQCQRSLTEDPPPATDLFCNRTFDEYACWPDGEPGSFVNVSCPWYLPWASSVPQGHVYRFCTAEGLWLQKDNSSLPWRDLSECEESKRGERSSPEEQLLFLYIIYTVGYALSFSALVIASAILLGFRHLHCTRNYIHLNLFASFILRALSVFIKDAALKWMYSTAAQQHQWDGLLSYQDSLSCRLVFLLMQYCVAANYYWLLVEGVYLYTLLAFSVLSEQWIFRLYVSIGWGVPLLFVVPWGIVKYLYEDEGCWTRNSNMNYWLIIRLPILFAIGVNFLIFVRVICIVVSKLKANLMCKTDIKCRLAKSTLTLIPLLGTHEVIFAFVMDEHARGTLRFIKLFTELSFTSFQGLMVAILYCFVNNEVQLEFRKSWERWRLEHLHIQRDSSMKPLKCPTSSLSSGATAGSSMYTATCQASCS

Row | Structure (SMILES) | Potency | activity change, negative = inhibition
1 | CC(C)CC(NC(=O)CCCNC(=O)CCC(=O)OC1O[C@H]2OC3(C)CC[C@H]4[C@H](C)CCC(C1C)C24OO3)C(=O)O (stereo partly specified) | inconclusive [inhibitor, partial curve, poor fit] | 
2 | COc1ccccc1N1CCN(C2CCCN(C(=O)COc3ccccc3Cl)C2)CC1 (stereo unspecified) | inconclusive [inhibitor, partial curve, poor fit] | 
3 | Oc1cccc2nc3ccccc3nc12 |  | inactive: 13.7%
4 | Cc1cc(N2CCCCC2)ccc1C=C1C(=O)N(C)C(=S)N(C)C1=O |  | inactive: 12.1%
5 | COc1ccccc1-n1c(-c2ccc(C)cc2)nc2ccccc2c1=O | inconclusive [inhibitor, full curve, poor fit] | 
6 | c1ccc(C2c3ccccc3-n3nncc3CN2CC2CCCCC2)cc1 (stereo unspecified) |  | inactive: 40%
7 | S=C=Nc1ccccn1 |  | inactive: 28.4%
8 | CCc1ccccc1NC(=O)c1sc2nc3c(cc2c1N)CN(Cc1ccccc1)CC3 | inconclusive [inhibitor, partial curve] | 
9 | COc1ccccc1CN1CCN(C(=O)COc2ccccc2)CC1 |  | inactive: -25%
10 | Nc1cccc(SC2CC(=O)N(c3ccc(Cl)cc3C(=O)c3ccccc3)C2=O)c1 (stereo unspecified) | inconclusive [inhibitor, single point] | 
11 | CCCNC(=O)N1[C@H]2CC[C@@H]1C(C(=O)OC)=C(c1ccc(-c3ccccc3)c(F)c1)C2 | inconclusive [inhibitor, partial curve, poor fit] | 
12 | COCCOc1ccc(C(F)(F)F)cc1NC(=O)CN1C(=O)NC2(CCCc3ccccc32)C1=O (stereo unspecified) | inconclusive [inhibitor, single point] | 
13 | CC(C)Oc1ccc(C(=O)Nc2ccc3c(c2)CCCN3C(=O)c2cccs2)cc1 | inconclusive [inhibitor, full curve] | 
14 | CC(C)(C)c1cc([N+](=O)[O-])cc(C(C)(C)C)c1O | inconclusive [inhibitor, partial curve, poor fit] | 
15 | CCOC(=O)[C@]12Cc3cc(OC)ccc3[C@H]1N(C1CCCCC1)C(=O)c1cc(OC)ccc12 | inconclusive [inhibitor, single point] | 
16 | O=C(c1ccc(Cl)cc1)C1CCCN(C2CCSCC2)C1 (stereo unspecified) | inconclusive [inhibitor, single point] | 
17 | Nc1ccccc1C(=O)OCC(=O)c1ccc2c(c1)OCCO2 | inconclusive [inhibitor, single point] | 
18 | CC(=O)C1=C(O)C2(C)c3c(O)c(C)c(O)c(C(C)=O)c3OC2CC1=O (stereo unspecified) | inconclusive [inhibitor, partial curve, poor fit] | 
19 | CN(c1ccccc1)S(=O)(=O)c1ccc2ccccc2c1 | inconclusive [inhibitor, single point] | 
20 | CC1C(OC(=O)CCC(=O)NC(C)(C)CO)O[C@H]2OC3(C)CC[C@H]4[C@H](C)CCC1C24OO3 (stereo partly specified) | inconclusive [inhibitor, partial curve, poor fit] | 
21 | CCOc1ccc2c(c1)c(C(C)=O)c(C)n2Cc1ccco1 | inconclusive [inhibitor, single point] | 

Row | Structure (SMILES) | Potency | activity change, negative = inhibition
22 | CC=C(CC)C1(CC)C(=O)NC(=S)NC1=O |  | inactive: -11%
23 | Cc1ccc(Cn2nc(C)c(NC(=O)c3cc(-c4ccc(F)cc4)on3)c2C)cc1 | inconclusive [inhibitor, partial curve, poor fit] | 
24 | COc1cc(OC)cc(C(=O)Nc2ccc(Br)cc2C(=O)c2ccccc2)c1 |  | inactive: 12.7%
25 | Cc1ccccc1N1CCN(Cc2ccc3c(c2)OCO3)CC1 | inconclusive [inhibitor, partial curve, poor fit] | 
26 | CC/C(=N\Nc1ccccc1)c1c(O)n(-c2ccccc2)c(=O)[nH]c1=O | inconclusive [inhibitor, full curve, poor fit] | 
27 | COc1ccc(OCC#CCN2CCCCCC2)cc1 | inconclusive [inhibitor, full curve, poor fit] | 
28 | COc1ccc(-c2cc(NC=O)c3ncc(-c4cc(OC)c(OC)c(OC)c4)n3c2)c(OC)c1 | inconclusive [inhibitor, full curve, poor fit] | 
29 | COc1ccc(-n2c(/C=C/c3ccc(O)c(OC)c3)nc3ccccc3c2=O)cc1 | inconclusive [inhibitor, single point] | 
30 | Cc1nc2ccccc2c(=O)n1-c1ccccn1 |  | inactive: 16.5%
31 | CN(C)c1ccc(NC(=O)CN2C(=O)CN=C(c3ccccc3)c3cc(Cl)ccc32)cc1 | inconclusive [inhibitor, partial curve, poor fit] | 
32 | CCOC(=O)[C@]12Cc3c(cc(OC)c(OC)c3OC)[C@H]1N(C)C(=O)c1ccccc12 |  | inactive: 7.31%
33 | COc1ccc(CNS(=O)(=O)c2cc3c(cc2C)N(C)CCO3)cc1 | active: 7.94 µM | 
34 | COc1cccc(C(=O)C2CCCN(Cc3ccc(F)cc3)C2)c1 (stereo unspecified) | inconclusive [inhibitor, single point] | 
35 | CN(Cc1ccccc1)Cc1ccccc1OC(=O)N(C)C |  | inactive: -5.49%
36 | Cc1ccc2c(c1)C1CN(C)CCC1N2C(=O)c1cn(-c2ccccc2)nc1-c1ccccc1 (stereo unspecified) | inconclusive [inhibitor, partial curve] | 
37 | Cc1ccccc1-n1c(-c2ccc([N+](=O)[O-])cc2)nc2ccccc2c1=O | inconclusive [inhibitor, partial curve, poor fit] | 
38 | Cc1ccc(NC(=O)CN2C(=O)CN=C(c3ccccc3)c3ccccc32)cc1Cl | inconclusive [inhibitor, partial curve, poor fit] | 
39 | C=CCc1ccccc1OCCn1c(C2CC(=O)N(Cc3ccc(F)cc3)C2)nc2ccccc21 (stereo unspecified) | inconclusive [inhibitor, partial curve, poor fit] | 
40 | CN1CCN(C(=O)COc2ccc(S(=O)(=O)Nc3ccc(F)cc3)cc2)CC1 | inconclusive [inhibitor, single point] | 
41 | COc1cccc(CNCCc2c[nH]c3ccccc23)c1 | inconclusive [inhibitor, single point] | 
